{
  "source": "paper PMC4336329",
  "about": "(PLoS ONE, 2015)",
  "note": "Among all 310,000 compounds or so, about 14,000 (4.5%) showed an effect of 50% or more. The effect is printed as a negative number. The list shows a part of the results.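 Also: peak tail current of the secondary pulse compared with the same well before compound.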",
  "data": [
    {"molecular_target": "human ether-à-go-go-related gene (hERG) potassium channel (human, UniProt Q12809)", "sequence (Q12809 whole entry, looked up)": "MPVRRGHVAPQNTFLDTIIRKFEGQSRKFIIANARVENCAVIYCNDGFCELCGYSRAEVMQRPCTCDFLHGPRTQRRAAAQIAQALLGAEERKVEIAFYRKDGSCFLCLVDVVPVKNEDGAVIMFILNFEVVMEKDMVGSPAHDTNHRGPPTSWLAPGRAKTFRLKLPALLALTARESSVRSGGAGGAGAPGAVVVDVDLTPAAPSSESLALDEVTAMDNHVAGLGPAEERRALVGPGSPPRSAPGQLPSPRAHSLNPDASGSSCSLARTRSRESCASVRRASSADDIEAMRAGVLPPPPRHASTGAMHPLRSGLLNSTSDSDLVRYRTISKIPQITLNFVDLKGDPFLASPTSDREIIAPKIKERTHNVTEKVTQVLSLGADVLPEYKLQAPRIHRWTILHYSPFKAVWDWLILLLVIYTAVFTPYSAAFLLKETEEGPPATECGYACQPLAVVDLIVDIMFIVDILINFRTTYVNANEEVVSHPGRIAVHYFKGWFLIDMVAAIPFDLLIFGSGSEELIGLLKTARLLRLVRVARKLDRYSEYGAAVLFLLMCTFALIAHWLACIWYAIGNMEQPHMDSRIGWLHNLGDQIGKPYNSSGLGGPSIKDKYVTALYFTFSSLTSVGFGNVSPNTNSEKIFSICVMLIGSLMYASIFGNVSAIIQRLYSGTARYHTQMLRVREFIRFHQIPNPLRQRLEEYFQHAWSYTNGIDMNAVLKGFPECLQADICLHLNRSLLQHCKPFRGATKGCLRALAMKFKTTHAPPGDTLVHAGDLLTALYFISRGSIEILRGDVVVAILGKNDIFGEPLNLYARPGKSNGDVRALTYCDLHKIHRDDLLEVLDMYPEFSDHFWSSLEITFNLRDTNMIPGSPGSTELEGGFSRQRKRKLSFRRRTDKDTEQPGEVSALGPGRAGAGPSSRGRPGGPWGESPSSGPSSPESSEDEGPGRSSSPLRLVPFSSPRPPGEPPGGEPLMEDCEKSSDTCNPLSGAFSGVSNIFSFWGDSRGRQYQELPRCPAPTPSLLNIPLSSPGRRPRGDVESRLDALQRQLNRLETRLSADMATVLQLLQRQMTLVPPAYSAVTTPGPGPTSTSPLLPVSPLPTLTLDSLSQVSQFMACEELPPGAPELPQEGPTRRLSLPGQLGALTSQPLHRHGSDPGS", "assay": "primary screen, population patch clamp on CHO cells stably expressing hERG", "units": {"hERG current change (%, negative = inhibition) at 10uM": "%"}, "values": [
      {"smiles": "CCc1nnc(NS(=O)(=O)c2ccc(NC(=O)c3ccccc3O)cc2)s1", "hERG current change (%, negative = inhibition) at 10uM": 16.5},
      {"smiles": "COc1ccc(/C=C(/NC(=O)c2ccco2)C(=O)Nc2cccc(C(=O)O)c2)cc1", "hERG current change (%, negative = inhibition) at 10uM": 18.7},
      {"smiles": "CCOC(=O)CCCNC(=O)COC(=O)c1cc(C)cc(C)c1", "hERG current change (%, negative = inhibition) at 10uM": -16.3},
      {"smiles": "CC(=O)OC1OCCOC1NC(=S)Nc1ccc(C)cc1", "note": "(centres unmarked)", "hERG current change (%, negative = inhibition) at 10uM": 5.94},
      {"smiles": "COc1ccc(C)cc1NC(=O)C(OC(=O)c1cnccn1)c1ccccc1", "note": "(centres unmarked)", "hERG current change (%, negative = inhibition) at 10uM": -27.5},
      {"smiles": "O=C(CSCc1ccc(C(=O)O)cc1)Nc1ccccc1", "hERG current change (%, negative = inhibition) at 10uM": 2.97},
      {"smiles": "Cc1onc(-c2ccccc2Cl)c1C(=O)N(C)C1CCCCC1", "hERG current change (%, negative = inhibition) at 10uM": 0.889},
      {"smiles": "Cc1ccc(C)c(Cn2nnc3c(=O)[nH]c(C4CCCN(C(=O)C5CCCCC5)C4)nc32)c1", "note": "(centres unmarked)", "hERG current change (%, negative = inhibition) at 10uM": -51.5},
      {"smiles": "C#CCOc1c(Br)cc(/C=N/O)cc1OCC", "hERG current change (%, negative = inhibition) at 10uM": -3.85},
      {"smiles": "CC(SCC(=O)Nc1ccc(S(=O)(=O)N2CCCCC2)cc1)C(=O)O", "note": "(centres unmarked)", "hERG current change (%, negative = inhibition) at 10uM": 8.35},
      {"smiles": "CC(Nc1cc(C)cc(C)c1)=[N+](C)CCNS(=O)(=O)c1ccc(Cl)cc1.[I-]", "hERG current change (%, negative = inhibition) at 10uM": -48.5},
      {"smiles": "CCOc1ccccc1OCC(=O)Nc1cc(S(=O)(=O)N2CCCCC2)ccc1OC", "hERG current change (%, negative = inhibition) at 10uM": -16},
      {"smiles": "CS(=O)(=O)c1ccc(NC(=O)c2cccc(S(=O)(=O)N3CCN(Cc4ccccc4)CC3)c2)cc1", "hERG current change (%, negative = inhibition) at 10uM": -1.25},
      {"smiles": "CCSc1nnc(NC(=O)C2C3CCC(C3)C2C(=O)O)s1", "note": "(centres unmarked)", "hERG current change (%, negative = inhibition) at 10uM": 34.5},
      {"smiles": "CCC(CC)c1nnc(NC(=O)c2cc(-c3ccccc3)nc3ccccc23)s1", "hERG current change (%, negative = inhibition) at 10uM": 9.31},
      {"smiles": "O=C1CCC(C(=O)OCC(=O)N2N=C3/C(=C/c4ccccc4)CCCC3C2c2ccccc2)N1", "note": "(centres unmarked)", "hERG current change (%, negative = inhibition) at 10uM": -70.3},
      {"smiles": "Cc1ccc(-c2nc(C3CCN(S(=O)(=O)c4ccc(C(F)(F)F)cc4)CC3)no2)cc1", "hERG current change (%, negative = inhibition) at 10uM": 19.6},
      {"smiles": "CCOC(=O)N1CCN(C(=O)C(NC(=O)c2ccc(C(C)(C)C)cc2)C(C)C)CC1", "note": "(centres unmarked)", "hERG current change (%, negative = inhibition) at 10uM": -37.7},
      {"smiles": "O=C(Cc1ccc(-n2c(=O)c3ccccc3n(Cc3ccccc3F)c2=O)cc1)NCC1CCCO1", "note": "(centres unmarked)", "hERG current change (%, negative = inhibition) at 10uM": 4.96},
      {"smiles": "COc1cccc(-n2c(SCC(=O)N3CCOCC3)nc3c([nH]c4ccccc43)c2=O)c1", "hERG current change (%, negative = inhibition) at 10uM": -4.88},
      {"smiles": "CC(CN1CCCCC1)OC(=O)c1cccc(F)c1.Cl", "note": "(centres unmarked)", "hERG current change (%, negative = inhibition) at 10uM": 6.39},
      {"smiles": "CN1CCc2c(C#N)c(N3CCCCC3)nc(N3CCOCC3)c2C1", "hERG current change (%, negative = inhibition) at 10uM": -24.8},
      {"smiles": "NC(=O)c1cc(NC(=O)CCNS(=O)(=O)c2cccc(C(F)(F)F)c2)cc(C(N)=O)c1", "hERG current change (%, negative = inhibition) at 10uM": 13},
      {"smiles": "CCCCC1=CC2=CC(=O)C(C)(OC(=O)CC)C(=O)C2=CN1Cc1ccc2c(c1)OCO2", "note": "(centres unmarked)", "hERG current change (%, negative = inhibition) at 10uM": -55.3},
      {"smiles": "Cn1c(=O)oc2cc(S(=O)(=O)N3CCc4ccccc4C3)ccc21", "hERG current change (%, negative = inhibition) at 10uM": 13.3},
      {"smiles": "CCOc1ccc(-c2cc(C(=O)NCCCn3ccnc3)c3ccccc3n2)cc1", "hERG current change (%, negative = inhibition) at 10uM": -16},
      {"smiles": "Cn1ccs/c1=N\\S(=O)(=O)c1ccc(C(C)(C)C)cc1", "hERG current change (%, negative = inhibition) at 10uM": -11.5},
      {"smiles": "CCOc1ccc(NC(=S)NC(=O)Cc2ccccc2)cc1", "hERG current change (%, negative = inhibition) at 10uM": 25.5},
      {"smiles": "COc1cccc(-c2nn(-c3ccccc3)cc2CNC(C)Cn2cncn2)c1", "note": "(centres unmarked)", "hERG current change (%, negative = inhibition) at 10uM": -42.5},
      {"smiles": "COc1cc(NC(=O)CCCNC(=O)c2ccc(Cl)cc2)cc(OC)c1OC", "hERG current change (%, negative = inhibition) at 10uM": 10.2},
      {"smiles": "CCCCCOC(=O)C1=C(C)Nc2nnnn2C1c1ccc(OC)c(OC)c1OC", "note": "(centres unmarked)", "hERG current change (%, negative = inhibition) at 10uM": -41.4},
      {"smiles": "C/C(=N\\Nc1ccc(F)cc1F)c1ccc(Br)s1", "hERG current change (%, negative = inhibition) at 10uM": -4.68},
      {"smiles": "CCOc1ccc(CCNC(=O)Nc2cccc(OC)c2)cc1OCC", "hERG current change (%, negative = inhibition) at 10uM": 14.5},
      {"smiles": "O=C(c1cc(-c2ccccc2)nc2ccccc12)N1CCOCC1", "hERG current change (%, negative = inhibition) at 10uM": 27.6},
      {"smiles": "CN(C)c1ccc(/C=N/NC(=O)c2cnc3ccccc3c2)cc1", "hERG current change (%, negative = inhibition) at 10uM": 2.71},
      {"smiles": "N=C1/C(=C/c2ccc(OC(=O)c3ccco3)cc2)C(=O)N=C2SC=CN12", "hERG current change (%, negative = inhibition) at 10uM": 31.7},
      {"smiles": "O=C(NC(=S)N1CCN(c2ccc([N+](=O)[O-])cc2)CC1)c1ccccc1Cl", "hERG current change (%, negative = inhibition) at 10uM": -39.8},
      {"smiles": "COc1ccc(OCC(=O)O/N=C(\\N)Cc2ccc(Cl)cc2Cl)cc1", "hERG current change (%, negative = inhibition) at 10uM": 9.69},
      {"smiles": "CCN1CCN(C(=O)C(C)Sc2nnc3nc(C)cc(C)n23)CC1", "note": "(centres unmarked)", "hERG current change (%, negative = inhibition) at 10uM": -4.58},
      {"smiles": "COc1ccc(COC(=O)CCS(=O)(=O)c2ccc(C)cc2)cc1F", "hERG current change (%, negative = inhibition) at 10uM": -21.3},
      {"smiles": "COc1ccc(C2(C(=O)NCCc3ccccc3)CCCC2)cc1OC", "hERG current change (%, negative = inhibition) at 10uM": 12.2},
      {"smiles": "C/C(=N\\NC(=O)c1cc2ccccc2cc1O)c1ccccn1", "hERG current change (%, negative = inhibition) at 10uM": -3.94},
      {"smiles": "Cc1n[nH]c(=O)nc1NC(C)c1ccccc1", "note": "(centres unmarked)", "hERG current change (%, negative = inhibition) at 10uM": -1.42},
      {"smiles": "Cc1nn2c3c(cnc2c1-c1ccccc1)C(=O)CC(c1ccccc1)C3", "note": "(centres unmarked)", "hERG current change (%, negative = inhibition) at 10uM": 7.17},
      {"smiles": "O=C(O)c1ccc(-n2c(-c3cc(C4CC4)[nH]n3)n[nH]c2=S)cc1", "hERG current change (%, negative = inhibition) at 10uM": 18.5},
      {"smiles": "O=C(CCN1C(=O)c2ccncc2C1=O)Nc1ccc(F)cc1", "hERG current change (%, negative = inhibition) at 10uM": 0.499},
      {"smiles": "COc1cccc(/C=N/n2nnnc2N)c1OCC#N", "hERG current change (%, negative = inhibition) at 10uM": 7.86},
      {"smiles": "COc1ccc(CNC(=O)CN2C(=O)C3C4C=CC(C4)C3C2=O)cc1", "note": "(centres unmarked)", "hERG current change (%, negative = inhibition) at 10uM": 19.2},
      {"smiles": "Cc1oc(-c2ccc(Cl)cc2)[n+]([O-])c1C.Cl", "hERG current change (%, negative = inhibition) at 10uM": 10.4},
      {"smiles": "C=CCNC(=S)N1CCc2[nH]c3ccccc3c2C1", "hERG current change (%, negative = inhibition) at 10uM": 4.64},
      {"smiles": "COc1ccccc1N1CCN(CC(=O)Nc2c(C)n[nH]c2C)CC1", "hERG current change (%, negative = inhibition) at 10uM": 9.97},
      {"smiles": "CCn1ccnc1CN(C)C(=O)c1cc(COc2ccccc2SC)on1", "hERG current change (%, negative = inhibition) at 10uM": -10.7},
      {"smiles": "CCN(CC)C(=O)Cn1cc(C(=O)C(=O)NCc2cccs2)c2ccccc21", "hERG current change (%, negative = inhibition) at 10uM": 5.77},
      {"smiles": "COc1ccccc1C(=O)NC(CCSC)C(=O)NNC(=O)c1ccccc1C", "note": "(centres unmarked)", "hERG current change (%, negative = inhibition) at 10uM": -11.8},
      {"smiles": "Cc1ccc(Cn2c3ccccc3c3cn[nH]c(=O)c32)cc1", "hERG current change (%, negative = inhibition) at 10uM": 6.46},
      {"smiles": "Cn1cc(CN2CCN(c3cnccn3)CC2)c(-c2cccc(Cl)c2)n1", "hERG current change (%, negative = inhibition) at 10uM": 6.29}
    ]}
  ]
}
